# Results as given in US20050137807A1, “Method of visualization of the ADME properties of chemical substances” (priority 2003, published 2005).
# For at least one compound, name, drawing or mass did not settle the structure.
# Assay: membrane affinity as a measure of the lipophilicity (TRANSIL technology)
# Type: physicochemical
row,Structure (SMILES),LogMA
1,CCOC(=O)C1=C(COCCN)NC(C)=C(C(=O)OC)C1c1ccccc1Cl (stereo not drawn) [Amlodipine],4.477
2,CN1CCN(C2=Nc3cc(Cl)ccc3Nc3ccccc32)CC1 [Clozapine],3.951
3,C[C@@H]1C[C@H]2[C@@H]3CCC4=CC(=O)C=C[C@]4(C)[C@@]3(F)[C@@H](O)C[C@]2(C)[C@@]1(O)C(=O)CO [Dexamethasone],2.833
4,CCOC(=O)C1=C(C)NC(C)=C(C(=O)OC)C1c1cccc(Cl)c1Cl (stereo not drawn) [Felodipine],5.301
5,CC(C)n1c(/C=C/C(O)CC(O)CC(=O)O)c(-c2ccc(F)cc2)c2ccccc21 (stereo not drawn) [Fluvastatin],2.146
6,C[C@H]1C[C@@H]2[C@H]([C@@H](O)C[C@@]3(C)[C@H]2CC[C@]3(O)C(=O)CO)[C@@]2(C)C=CC(=O)C=C12 [Methylprednisolone],2.000
7,COC(=O)C1=C(C)NC(C)=C(C(=O)OCCN(C)Cc2ccccc2)C1c1cccc([N+](=O)[O-])c1 (stereo not drawn) [Nicardipine],4.646
8,COCCOC(=O)C1=C(C)NC(C)=C(C(=O)OC(C)C)C1c1cccc([N+](=O)[O-])c1 (stereo not drawn) [Nimodipine],4.279
9,COC(=O)C1=C(C)NC(C)=C(C(=O)OCC(C)C)C1c1ccccc1[N+](=O)[O-] (stereo not drawn) [Nisoldipine],4.903
10,CCOC(=O)C1=C(C)NC(C)=C(C(=O)OC)C1c1cccc([N+](=O)[O-])c1 (stereo not drawn) [Nitrendipine],4.477
11,CNC(=C[N+](=O)[O-])NCCSCc1ccc(CN(C)C)o1 [Ranitidine],1.079
12,NC(=O)N1C(=O)/C(=C(\O)c2cccs2)c2cc(Cl)ccc21 [Tenidap],1.699
